The inconclusive results got no clear call from the source; some entries with a clear call stand among them for comparison. A potency beside an inconclusive call is a rough fit, not a confirmed value. Activity calls are given as the source filed them. Calls follow the shape of the dose curve; as a rule, active = well fitted cell-killing curve with a large enough effect; inconclusive = small, poorly fitted or top-dose-only effect, or effect the other way; inactive = flat fitted curve, though single readings scatter.
Tested on: CAOV3
Assay: Primary qHTS to identify gynecologic anti-cancer compounds using libraries of approved drugs and bioactive compounds (AID 1345084); also: nearly all actives have a fitted effect of over 55% in size
Conditions: Gynecologic cancer cell panel viability, ATPlite luminescence, 48 h; series mostly up to 57.5 µM
Summary of the method: (§1)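 Five-point cytotoxicity, 48 h drug exposure at 37 C, 5% CO2, on cells seeded 16 h beforehand. ATP content read by ATPlite luminescence.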
Potency is read from the fitted curve at half-maximal effect; tags tell the direction and shape of the fitted curve.

Which Potency does the source give for COc1cccc(-c2cc(F)ccc2C2Cc3nc(N)nc(C)c3C(=O)N2)n1 (stereo unspecified) here?
Its Potency is inconclusive: 0.316 µM [cytotoxic, full curve, poor fit].

CN1CCN(c2ccc(OC(F)(F)F)c(Nc3ncc4c(n3)-c3c(c(C(N)=O)nn3CCO)CC4)c2)CC1 was tested. Which Potency did it give?
The Potency was inconclusive: 1.58 µM [cytotoxic, full curve].

For CCNC(=O)c1noc(-c2cc(Cl)c(O)cc2O)c1-c1ccc(OC)cc1, which Potency is on record?
The Potency was inconclusive: 44.7 µM.

O=C(Nc1ccc(Cl)cc1F)c1ccccc1O was tested. Which Potency did it give?
The Potency was inconclusive: 39.8 µM [cytotoxic, single point].

Which Potency does the source give for C[C@@H](N[C@H]1CCCC[C@@H]1NC(=O)c1ccc(Cl)cc1)c1cccc2ccccc12 here?
Its Potency is inconclusive: 39.8 µM [cytotoxic, single point].

With CN1CCN(Cc2ccc(NC(=O)Cc3ccc(Oc4cc(NC(=O)C5CC5)ncn4)cc3)cc2C(F)(F)F)CC1 as the molecule, how does the Potency read?
The Potency was inconclusive: 10 µM [cytotoxic, partial curve, poor fit].

With CCN(CC)CCN(Cc1ccc(-c2ccc(C(F)(F)F)cc2)cc1)C(=O)Cn1c(SCc2ccc(F)cc2)nc(=O)c2c1CCC2 as the molecule, how does the Potency read?
The Potency was active: 12.6 µM.

Which Potency does the source give for N#Cc1cc(-c2ccnc(Nc3ccc(N4CCOCC4)cc3)n2)ccc1OC1CCOCC1 here?
The Potency was inconclusive: 11.2 µM [cytotoxic, partial curve, poor fit].

For C#Cc1cccc(Nc2nc3cc(C(=O)O)ccc3c3cncnc23)c1, which Potency is on record?
Its Potency is inconclusive: 14.1 µM [cytotoxic, partial curve].

How did the Potency turn out when N#CC(CCCN1CCC(O)(c2ccc(Cl)cc2)CC1)(c1ccccc1)c1ccccc1 was run?
The Potency was inconclusive: 31.6 µM [cytotoxic, partial curve, poor fit].

C=C1C(=O)OC2C(OC(=O)C=C(C)C)C(C)=C3C(=O)C=C(C)C3C(O)C12 (stereo unspecified) was tested. Which Potency did it give?
Its Potency is active: 11.2 µM.

With C=CC(=O)N1CCC(Oc2cc3c(Nc4ccc(Cl)c(Cl)c4F)ncnc3cc2OC)CC1 as the molecule, how does the Potency read?
Its Potency is inconclusive: 28.2 µM [cytotoxic, partial curve, poor fit].

How did the Potency turn out when NC(=O)c1ccccc1Nc1ccnc(Nc2cccc(O)c2)n1 was run?
Its Potency is active: 8.91 µM.

Which Potency does the source give for CCCCCCCCC(=O)N[C@H](CN1CCCC1)[C@H](O)c1ccc2c(c1)OCCO2 here?
The Potency was inconclusive: 39.8 µM [cytotoxic, single point].

Cc1noc(C)c1-c1cc(O)cc(C(O)c2ccccc2)c1 (stereo unspecified) was tested. Which Potency did it give?
The Potency was inconclusive: 28.2 µM [cytotoxic, single point].

How did the Potency turn out when C=CC(=O)N1CCN(C(=O)CNc2cc(-c3ccccc3Cl)c(Cl)cc2OC)CC1 was run?
The Potency was inconclusive: 2 µM [rising, partial curve, poor fit].

For CC(=O)N1CCN(CCOc2ccc(C3CCN(C4=Nn5c(nnc5C(F)(F)F)CC4)CC3)cc2)CC1, which Potency is on record?
The Potency was inconclusive: 8.91 µM [cytotoxic, single point].

How did the Potency turn out when C=CC(=O)N1CCN(C(=O)CNc2cc(I)c(Cl)cc2O)CC1 was run?
Its Potency is inconclusive: 1.58 µM [cytotoxic, single point].

C#CCN(Cc1cc2c(=O)[nH]c(C)nc2cc1Br)c1ccc(C(=O)NCc2cccnc2)cc1 was tested. Which Potency did it give?
The Potency was inconclusive: 0.891 µM.

Cc1cc(N(C)C)ccc1-c1nc2ccc(-c3nc4ccc(N5CCN(C)CC5)cc4[nH]3)cc2[nH]1 was tested. Which Potency did it give?
The Potency was inconclusive: 0.224 µM [rising, full curve, poor fit].

Tested on: CASKI
Assay: as above
Conditions: Gynecologic cancer cell panel viability, ATPlite luminescence, 48 h; series mostly up to 57.5 µM
Summary of the method: as §1

How did the Potency turn out when COc1cccc(-c2cc(F)ccc2C2Cc3nc(N)nc(C)c3C(=O)N2)n1 (stereo unspecified) was run?
The Potency was inconclusive: 0.501 µM [cytotoxic, full curve].

For CN1CCN(c2ccc(OC(F)(F)F)c(Nc3ncc4c(n3)-c3c(c(C(N)=O)nn3CCO)CC4)c2)CC1, which Potency is on record?
The Potency was inconclusive: 0.316 µM [cytotoxic, full curve].

CCNC(=O)c1noc(-c2cc(Cl)c(O)cc2O)c1-c1ccc(OC)cc1 was tested. Which Potency did it give?
The Potency was inconclusive: 0.891 µM [cytotoxic, single point].

How did the Potency turn out when O=C(Nc1ccc(Cl)cc1F)c1ccccc1O was run?
Its Potency is inconclusive: 35.5 µM [cytotoxic, single point].

With CN1CCN(Cc2ccc(NC(=O)Cc3ccc(Oc4cc(NC(=O)C5CC5)ncn4)cc3)cc2C(F)(F)F)CC1 as the molecule, how does the Potency read?
Its Potency is inconclusive: 8.91 µM [cytotoxic, partial curve, poor fit].

With CCN(CC)CCN(Cc1ccc(-c2ccc(C(F)(F)F)cc2)cc1)C(=O)Cn1c(SCc2ccc(F)cc2)nc(=O)c2c1CCC2 as the molecule, how does the Potency read?
The Potency was active: 25.1 µM.

For C#Cc1cccc(Nc2nc3cc(C(=O)O)ccc3c3cncnc23)c1, which Potency is on record?
The Potency was inconclusive: 25.1 µM [cytotoxic, single point].

With COc1cc(C[C@H]2C(=O)OC[C@@H]2Cc2ccc(OC)c(OC)c2)ccc1O as the molecule, how does the Potency read?
Its Potency is inconclusive: 7.94 µM [cytotoxic, partial curve].

Which Potency does the source give for N#CC(CCCN1CCC(O)(c2ccc(Cl)cc2)CC1)(c1ccccc1)c1ccccc1 here?
The Potency was inconclusive: 28.2 µM [cytotoxic, single point].

Which Potency does the source give for CCN1CCN(Cc2ccc(NC(=O)c3ccc(C)c(Oc4ccnc5[nH]ccc45)c3)cc2C(F)(F)F)CC1 here?
The Potency was inconclusive: 11.2 µM [cytotoxic, single point].

With C=CC(=O)N1CCC(Oc2cc3c(Nc4ccc(Cl)c(Cl)c4F)ncnc3cc2OC)CC1 as the molecule, how does the Potency read?
The Potency was active: 22.4 µM.

For NC(=O)c1ccccc1Nc1ccnc(Nc2cccc(O)c2)n1, which Potency is on record?
The Potency was active: 12.6 µM.

How did the Potency turn out when O=C(Nc1nc2cc(C(F)(F)F)cc(NC3CC3)n2n1)c1cccnc1 was run?
Its Potency is inconclusive: 8.91 µM [cytotoxic, partial curve].

How did the Potency turn out when CC(=O)OC[C@H]1O[C@@H](n2ncc(=O)[nH]c2=O)[C@H](OC(C)=O)[C@@H]1OC(C)=O was run?
The Potency was inconclusive: 1.41 µM [cytotoxic, single point].

CC(=O)C1=C(O)C2c3c[nH]c4cccc(c34)CC2C(C)(C)N(C)C1=O (stereo unspecified) was tested. Which Potency did it give?
Its Potency is inconclusive: 8.91 µM [rising, full curve, poor fit].

With CCOC(=O)c1cccc(CNc2ccc(N(C)C(=O)Nc3ccccc3)cc2)c1 as the molecule, how does the Potency read?
Its Potency is inconclusive: 22.4 µM [cytotoxic, single point].

With Cc1noc(C)c1-c1cc(O)cc(C(O)c2ccccc2)c1 (stereo unspecified) as the molecule, how does the Potency read?
The Potency was inconclusive: 31.6 µM [cytotoxic, single point].

How did the Potency turn out when CC(C)(C)Nc1nc(Nc2ccc(C(N)=O)cc2)cc(N)c1C#N was run?
Its Potency is inconclusive: 39.8 µM [cytotoxic, single point].

With C=CC(=O)N1CCN(C(=O)CNc2cc(I)c(Cl)cc2O)CC1 as the molecule, how does the Potency read?
Its Potency is inconclusive: 1.58 µM [cytotoxic, single point].

Which Potency does the source give for C#CCN(Cc1cc2c(=O)[nH]c(C)nc2cc1Br)c1ccc(C(=O)NCc2cccnc2)cc1 here?
Its Potency is active: 0.447 µM.

With Cc1cc(N(C)C)ccc1-c1nc2ccc(-c3nc4ccc(N5CCN(C)CC5)cc4[nH]3)cc2[nH]1 as the molecule, how does the Potency read?
Its Potency is inconclusive: 3.55 µM [cytotoxic, partial curve, poor fit].
